{"source": "paper PMC4336329", "about": "(PLoS ONE, 2015)", "note": "Out of some 310,000 compounds screened, about 14,000 (4.5%) showed an effect of 50% or more. The effect is printed as a negative number. The list shows a part of the results.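 Further: peak tail current of the secondary pulse compared with the same well before compound.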", "data": [{"target": "human ether-à-go-go-related gene (hERG) potassium channel (human, UniProt Q12809)", "sequence (Q12809 whole entry, looked up)": "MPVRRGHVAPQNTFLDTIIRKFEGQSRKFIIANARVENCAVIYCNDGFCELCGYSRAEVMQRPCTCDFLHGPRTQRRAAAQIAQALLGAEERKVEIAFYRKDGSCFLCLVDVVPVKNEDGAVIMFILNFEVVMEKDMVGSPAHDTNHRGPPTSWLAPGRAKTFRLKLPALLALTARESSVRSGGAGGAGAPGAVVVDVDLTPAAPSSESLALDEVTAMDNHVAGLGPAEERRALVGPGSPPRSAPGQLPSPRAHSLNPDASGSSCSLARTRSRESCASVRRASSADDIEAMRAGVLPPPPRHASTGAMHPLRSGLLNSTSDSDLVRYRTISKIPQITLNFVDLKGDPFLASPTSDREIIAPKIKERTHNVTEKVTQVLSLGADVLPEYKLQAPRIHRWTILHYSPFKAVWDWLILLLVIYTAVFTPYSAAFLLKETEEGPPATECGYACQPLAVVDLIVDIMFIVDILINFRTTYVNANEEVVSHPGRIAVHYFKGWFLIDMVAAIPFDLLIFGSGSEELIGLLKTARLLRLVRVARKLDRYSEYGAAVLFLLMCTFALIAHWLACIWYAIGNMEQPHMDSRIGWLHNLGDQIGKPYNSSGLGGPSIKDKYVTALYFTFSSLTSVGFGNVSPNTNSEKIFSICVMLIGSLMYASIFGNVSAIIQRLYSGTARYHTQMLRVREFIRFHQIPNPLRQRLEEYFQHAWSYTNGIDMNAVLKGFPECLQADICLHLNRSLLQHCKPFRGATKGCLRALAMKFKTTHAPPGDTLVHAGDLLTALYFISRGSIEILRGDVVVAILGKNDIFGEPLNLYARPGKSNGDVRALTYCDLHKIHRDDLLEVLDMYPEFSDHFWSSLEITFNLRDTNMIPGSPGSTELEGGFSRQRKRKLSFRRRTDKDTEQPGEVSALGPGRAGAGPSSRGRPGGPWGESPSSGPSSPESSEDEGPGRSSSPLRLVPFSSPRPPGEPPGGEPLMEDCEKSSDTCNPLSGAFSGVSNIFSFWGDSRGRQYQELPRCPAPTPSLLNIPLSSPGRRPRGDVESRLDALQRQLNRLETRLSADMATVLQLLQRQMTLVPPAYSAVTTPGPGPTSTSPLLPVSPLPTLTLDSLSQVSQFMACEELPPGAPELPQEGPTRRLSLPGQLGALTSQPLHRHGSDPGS", "experiment": "primary screen, population patch clamp on CHO cells stably expressing hERG", "units": {"hERG current change (%, negative = inhibition) at 10uM": "%"}, "values": [{"smiles": "CCOC(=O)COc1nc(OC)nc(N2CCOCC2)n1", "hERG current change (%, negative = inhibition) at 10uM": 5.73}, {"smiles": "CC12CC(c3ccccc3O1)N(C(=O)c1ccco1)C(=S)N2c1ccc(F)cc1", "note": "(stereo not shown)", "hERG current change (%, negative = inhibition) at 10uM": -10.1}, {"smiles": "CCCN1CNC(=S)N(Cc2ccccc2)C1", "hERG current change (%, negative = inhibition) at 10uM": 12.2}, {"smiles": "O=C(COC(=O)/C=C/c1ccccc1Cl)NCCc1ccc(Cl)cc1Cl", "hERG current change (%, negative = inhibition) at 10uM": 7.19}, {"smiles": "CCN(C(=O)COC(=O)c1cc(S(=O)(=O)N2CCOCC2)c(Cl)cc1Cl)C1CCS(=O)(=O)C1", "note": "(stereo not shown)", "hERG current change (%, negative = inhibition) at 10uM": 9.86}, {"smiles": "CCOc1ccc(N2C(=O)CN=C2Nc2ccccc2F)cc1", "hERG current change (%, negative = inhibition) at 10uM": 5.08}, {"smiles": "CC(=O)n1c(C=Nc2ccc(Cl)cc2)c(O)c2ccccc21", "hERG current change (%, negative = inhibition) at 10uM": -6.28}, {"smiles": "Cc1cc(-c2nnc(SCC(=O)Nc3nccs3)o2)no1", "hERG current change (%, negative = inhibition) at 10uM": 21.6}, {"smiles": "CCn1c2ccccc2c2cc(NC(=O)COc3ccccc3OC)ccc21", "hERG current change (%, negative = inhibition) at 10uM": 6.08}, {"smiles": "O=C(NCc1ccc2c(c1)OCO2)C(=O)Nc1ccccc1", "hERG current change (%, negative = inhibition) at 10uM": -20.5}, {"smiles": "CCOC(=O)C1(CC2CCCCO2)CCN(S(=O)(=O)c2ccc(OC)cc2)CC1", "note": "(stereo not shown)", "hERG current change (%, negative = inhibition) at 10uM": -38.3}, {"smiles": "COc1ccccc1C(=O)C1CCCN(Cc2cccc3nccnc23)C1", "note": "(stereo not shown)", "hERG current change (%, negative = inhibition) at 10uM": -67.4}, {"smiles": "CC(/C=N/NC(=O)c1cc(-c2cccnc2)nc2c1c(C)nn2-c1ccccc1)=C\\c1ccccc1", "hERG current change (%, negative = inhibition) at 10uM": -6.53}, {"smiles": "COc1cc(CCC(=O)Nc2c(C(=O)N3CCN(c4ccccc4)CC3)oc3ccccc23)on1", "hERG current change (%, negative = inhibition) at 10uM": -37.2}, {"smiles": "Cc1ccc(C(=O)Nc2cccc(NC(=O)CN3CCCCC3)c2)cc1", "hERG current change (%, negative = inhibition) at 10uM": -47.3}, {"smiles": "COC(=O)c1ccc(COC(=O)CNC(=O)c2cccc(OC)c2)o1", "hERG current change (%, negative = inhibition) at 10uM": -0.602}, {"smiles": "COc1ccccc1NC(=O)Nc1nc2ccc(S(N)(=O)=O)cc2s1", "hERG current change (%, negative = inhibition) at 10uM": 22.4}, {"smiles": "CCOC(=O)c1cc(-c2ccccc2)n(CCC(=O)N2CCN(c3ccc(OC)cc3)CC2)c1C", "hERG current change (%, negative = inhibition) at 10uM": -25.5}, {"smiles": "O=C(NC(=S)Nc1ccc(Cl)cc1)c1cncc(Br)c1", "hERG current change (%, negative = inhibition) at 10uM": 0.877}, {"smiles": "CC(C)C(C(=O)NCc1ccccc1)N(CC1CCCO1)C(=O)CNS(=O)(=O)c1ccccc1", "note": "(stereo not shown)", "hERG current change (%, negative = inhibition) at 10uM": 8.75}, {"smiles": "Cc1ccc(S(=O)(=O)NCC(=O)NCC(=O)OCc2c(F)cccc2Cl)cc1", "hERG current change (%, negative = inhibition) at 10uM": 4.12}, {"smiles": "CC(CC(=O)O)CC(=O)Nc1cc([N+](=O)[O-])ccc1O", "note": "(stereo not shown)", "hERG current change (%, negative = inhibition) at 10uM": -2.89}, {"smiles": "CC(=O)NCc1ccc2[nH]c(C)cc2c1", "hERG current change (%, negative = inhibition) at 10uM": 22.3}, {"smiles": "O=[N+]([O-])c1ccc(NNC(=S)Nc2ccc(F)cc2)cc1", "hERG current change (%, negative = inhibition) at 10uM": -15.6}, {"smiles": "COc1ccc(C(CNC(=O)c2ccc(-n3cnnn3)cc2)N2CCOCC2)cc1", "note": "(stereo not shown)", "hERG current change (%, negative = inhibition) at 10uM": -16.2}, {"smiles": "CCOc1ccc(Nc2nc(NCC(=O)O)nc(N)c2[N+](=O)[O-])cc1", "hERG current change (%, negative = inhibition) at 10uM": 6.75}, {"smiles": "CSc1ccc(Cl)c(C(=O)OCC(=O)N2CCNC2=O)c1", "hERG current change (%, negative = inhibition) at 10uM": -1.88}, {"smiles": "CCN(CC)CCCNCC(=O)Nc1ccc2c(c1)CCC2", "hERG current change (%, negative = inhibition) at 10uM": -12}, {"smiles": "C#CCOCCOCCOCCNc1nc(N2CCN(C(=O)[C@H](Cc3ccc(O)cc3)n3cc([C@@H](N)C(C)CC)nn3)CC2)nc(N2CCN(C(=O)[C@H](CCCCN)n3cc([C@@H](N)CO)nn3)CC2)n1.Cl", "note": "(stereo partly shown)", "hERG current change (%, negative = inhibition) at 10uM": 11.6}, {"smiles": "COCCN(Cc1cc2cc3c(cc2n2nnnc12)OCO3)C(=O)c1ccccc1F", "hERG current change (%, negative = inhibition) at 10uM": -9.79}, {"smiles": "COc1ccc(NC(=O)CSc2ccccc2)c([N+](=O)[O-])c1", "hERG current change (%, negative = inhibition) at 10uM": -29}, {"smiles": "O=C(COC(=O)c1cccc(S(=O)(=O)NCc2ccccc2)c1)c1ccc2c(c1)OCCO2", "hERG current change (%, negative = inhibition) at 10uM": 11.7}, {"smiles": "O=S(=O)(c1ccc(Br)s1)N1CCN(c2ncccn2)CC1", "hERG current change (%, negative = inhibition) at 10uM": -3.42}, {"smiles": "CCOC(=O)c1c(C)n(C)c2c(C)cc(O)c(OC(=O)CC)c12", "hERG current change (%, negative = inhibition) at 10uM": 7.65}, {"smiles": "COc1ccccc1NC(=O)CSc1nnc(C2CCCCC2)o1", "hERG current change (%, negative = inhibition) at 10uM": -2.31}, {"smiles": "Cc1ccc(NC(=O)c2nc[nH]c2C(=O)NCC(=O)OC(C)(C)C)cc1", "hERG current change (%, negative = inhibition) at 10uM": -4.82}, {"smiles": "CNCc1ccccc1OCC(=O)Nc1ccccc1", "hERG current change (%, negative = inhibition) at 10uM": 14.7}, {"smiles": "COCCN(C(=O)COC(=O)C1CC1)c1c(N)n(Cc2ccccc2)c(=O)[nH]c1=O", "hERG current change (%, negative = inhibition) at 10uM": -8.45}, {"smiles": "CC1(C)CC[C@]2(C(=O)O)CC[C@]3(C)C(=CCC4[C@@]5(C)CC[C@H](O)C(C)(C)C5[C@H](O)C[C@]43C)[C@@H]2C1", "note": "(stereo partly shown)", "hERG current change (%, negative = inhibition) at 10uM": 5.67}, {"smiles": "Cc1ccsc1/C=N/Nc1nc2ccccc2s1", "hERG current change (%, negative = inhibition) at 10uM": -14.7}, {"smiles": "O=C1COc2ccc(C(=O)CSc3nnc(NCc4ccccc4)s3)cc2N1", "hERG current change (%, negative = inhibition) at 10uM": -9.48}, {"smiles": "CCCCCc1cc(=O)oc2c(C(CCN3CCCCC3)c3cc(OC)c(OC)c(OC)c3)c(OC)cc(OC)c12", "note": "(stereo not shown)", "hERG current change (%, negative = inhibition) at 10uM": -74.6}, {"smiles": "CCOC(=O)c1ccc(NC(=O)c2ccc(CN3CCc4ccccc4C3)cc2)cc1", "hERG current change (%, negative = inhibition) at 10uM": 13.3}, {"smiles": "O=C(CCc1n[nH]c(=O)[nH]c1=O)N/N=C/c1ccco1", "hERG current change (%, negative = inhibition) at 10uM": 21}, {"smiles": "Cc1nn(-c2ccccc2)c2nc(C(Cl)(Cl)Cl)[nH]c(=O)c12", "hERG current change (%, negative = inhibition) at 10uM": 17}, {"smiles": "O=C(Cn1nc(Cc2cccnc2)c2ccccc2c1=O)NCCCN1CCCC1=O", "hERG current change (%, negative = inhibition) at 10uM": -7.52}, {"smiles": "COc1ccc(CCN(/C=C2\\Sc3ccccc3C2=O)C(C)=O)cc1OC", "hERG current change (%, negative = inhibition) at 10uM": 6.92}, {"smiles": "c1ccc(-c2cc(N3CCCCC3)nc(-c3ccccc3)n2)cc1", "hERG current change (%, negative = inhibition) at 10uM": 6.55}, {"smiles": "O=C(CSc1nc2ccccc2n1-c1ccccc1)Nc1ncc(Cl)cc1Cl", "hERG current change (%, negative = inhibition) at 10uM": 12.1}, {"smiles": "CCOc1ccc2ccccc2c1/C=N/NC(=O)c1c(C)cc(C)[nH]c1=O", "hERG current change (%, negative = inhibition) at 10uM": 0.637}, {"smiles": "O=c1c2ccccc2nnn1CSc1nnc(-c2cccc(S(=O)(=O)N3CCCCC3)c2)o1", "hERG current change (%, negative = inhibition) at 10uM": -13.2}, {"smiles": "CC(C)CC(NC(=O)CCCNC(=O)CCC(=O)OC1O[C@H]2OC3(C)CC[C@H]4[C@H](C)CCC(C1C)C24OO3)C(=O)O", "note": "(stereo partly shown)", "hERG current change (%, negative = inhibition) at 10uM": 1.34}]}]}
